Test results published in PubChem BioAssay AID1963576 (National Center for Advancing Translational Sciences (NCATS), 2024).
The whole screen tested about 46,000 compounds, of which about 60 (0.1%) were called active. About 3% were inconclusive and are not listed. Calls come from the whole dose curve; as a rule, active = well fitted inhibition curve with a large enough effect; inconclusive = small, poorly fitted or top-dose-only effect; inactive = no such curve, though single readings can be large or run the other way. This is one part of the list.

experiment: Primary qHTS assay for Inhibitors of ovarian cancer metastasis using an organotypic tumor microenvironment (TME) model.; note: nearly all actives have a fitted effect of over 65% in size;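 for activity change, negative = inhibition: plate controls were DMSO wells for no effect and tomatine positive control wells for full effect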; conditions: SKOV3ip1-GFP adhesion/invasion on 3D omental model, fluorescence; series mostly up to 45.8 µM; activity change, negative = inhibition: at the top concentration
Method in brief: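 Primary human omental fibroblast/mesothelial 3D culture pre-formed 48 h. SKOV3ip1-GFP cells added with compounds (0.36-46 umol/L), incubated 2 h RT/16 h 37 C, fixed; GFP cells quantified at 488/509 nm.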

outcome, inactive:
CN(C)CCNC(=O)c1ccc(Cn2c(=O)c3cccn3c3cccnc32)cc1
CCOc1ccc(-c2csc(-c3c(N)c(C(=O)c4ccc5c(c4)OCO5)n4ccccc34)n2)cc1
COc1ccc(-n2c(=O)c3c4c(sc3n3c(SC(C)C)nnc23)COC(C(C)C)C4)cc1 (stereo not drawn)
Cc1cc(C)cc(NC(=O)Cn2c(=O)n(Cc3ccc4c(c3)OCO4)c(=O)c3oc4ccccc4c32)c1
COc1cccc(C2CC(=O)Nc3c2c(=O)n(C)c2nc4ccccc4n32)c1 (stereo not drawn)
CCOC(=O)c1c(C)[nH]c(C)c1S(=O)(=O)N(C)CC(=O)Nc1cccc(C(F)(F)F)c1
COc1ccccc1-c1cc(C(F)(F)F)nc(S(=O)(=O)CCCC(=O)Nc2ccc(F)cc2F)n1
Cc1cccc(C(=O)Nc2nc(-c3nnn(-c4cc(C)ccc4C)c3C)ns2)c1
COc1ccc(C2NC(=O)NC(C)=C2C(=O)Nc2cc(C)cc(C)c2)c(OC)c1 (stereo not drawn)
Cc1ccc(CS(=O)(=O)Cc2ccc(C(=O)NCCc3ccc(Cl)cc3)o2)cc1
COc1cc(OC)cc(C(=O)Nc2ccc3nc(N4CCC(C)CC4)cc(C)c3c2)c1
CCCCOc1cccc(C(=O)Nc2cccc3ccc(C)nc23)c1
Cc1ccc2oc(=O)n(CCNC(=O)Nc3ccccc3Cl)c2c1
Cc1ccc2c(CC(=O)Nc3cc(C(F)(F)F)ccc3Cl)coc2c1C
COc1ccc(C(=O)c2oc3ccccc3c2NC(=O)COc2c(C)cc(C)cc2C)cc1
COc1cccc(CNC(=O)Cn2ncc3c4ccccc4n(C)c3c2=O)c1
COc1cccc(CNC(=O)c2c(O)nc3ccccn3c2=O)c1
Cc1ccc(C)c(N2CCN(C(=O)c3ccc4c(Cl)c5c(nc4c3)CCCC5)CC2)c1
COc1cc(-c2noc(-c3ccc(NCCc4ccccc4)c([N+](=O)[O-])c3)n2)cc(OC)c1OC
CCOc1ccc(S(=O)(=O)NCCc2sc(-c3ccc(C)cc3)nc2C)cc1
COc1cc(NC(=O)Cn2c(=O)n(C(C)C)c(=O)c3oc4ccccc4c32)cc(OC)c1
CCC1CN(C(=O)N2CCC(C(=O)NCCOC)CC2)c2ccccc2O1 (stereo not drawn)
CC(=O)c1ccc(NC(=O)CCc2c(C)nn(-c3ccc4nncn4n3)c2C)cc1
CCc1ccc(NC(=O)C2CCCN(S(=O)(=O)c3c(C)[nH]c(=O)[nH]c3=O)C2)cc1 (stereo not drawn)
CC(C)c1ccc(NC(=O)C2CCCN(S(=O)(=O)c3cccc4nonc34)C2)cc1 (stereo not drawn)

Activity change, negative = inhibition, inactive:
Cn1nc(-c2ccc(N3CCCCC3)c(NC(=O)c3ccc(Cl)cc3)c2)c2ccccc2c1=O 0.338%
COc1ccc(C)cc1NC(=O)CN1C(=O)COc2ccc(S(=O)(=O)NC3CCCC3)cc21 -2.73%
CCOc1ccccc1NC(=O)c1nn(C)c2c1CSc1ccccc1-2 -2.02%
Cc1ccc(-n2ncc(C(=O)NCCN3CCc4ccccc4C3)c2C2CCNCC2)cc1C -0.119%
COc1ccc(NC(=O)c2cc(=O)c3ccc(C)c(C)c3o2)cc1Cl 5.5%
CC(=O)c1cccc(Nc2ccc3cc(S(=O)(=O)N4CCCC4)ccc3n2)c1 -2.3%
CCCn1c(=NC(=O)c2c(-c3c(F)cccc3Cl)noc2C)c(C(=O)OCC)cc2c(=O)n3ccccc3nc21 -1.88%
CCCc1cc(=O)[nH]c(SCc2nc(-c3ccccc3F)no2)n1 12.3%
CCOC(=O)c1cc(S(=O)(=O)Nc2ccccc2OCC)[nH]n1 4.59%
Cc1ccccc1CSc1nc2c([nH]c3ccccc32)c(=O)n1C -0.716%
CCOc1ccc(NC(=O)C(C)Sc2nc3ncccc3o2)cc1 (stereo not drawn) 7.19%
Cc1cccc(CNC(=O)c2ccc(NC(=O)N3CCSc4ncccc43)cc2)c1 22.2%
CC1CCN(S(=O)(=O)c2ccc3c(c2)N(CC(=O)NCCCN2CCCC(C)C2)C(=O)CS3)CC1 (stereo not drawn) -10.9%
COc1ccc(-n2nc(C(=O)Nc3cccc(C)n3)c3c4ccccc4n(C)c3c2=O)cc1 -3.79%
Cc1ccc2c(c1)-c1ncc(C(=O)c3cc(Br)ccc3O)cc1CO2 40.9%
CC(=O)c1ccc(N2CCN(c3ncnc4c3cnn4C)CC2)cc1 11.1%
Cc1cccc(CNC(=O)Cn2ccc3cc(S(=O)(=O)N4CCC(C)CC4)ccc32)c1 -5.96%
CCOC(=O)C1CCN(C(=O)Cn2ncc3c([nH]c4ccccc43)c2=O)CC1 3.23%
COc1ccc(-c2ccc(CCC(=O)O)n2-c2cc(Cl)ccc2O)cc1 -21.8%
O=C(Cn1c(=O)n(Cc2nc(-c3ccccc3)no2)c(=O)c2cc3c(cc21)OCO3)Nc1cccc(C(F)(F)F)c1 -1.24%
CCC(C)N(C)C(=O)c1cc2ccccc2c(-c2ccccc2Cl)n1 (stereo not drawn) -18.1%
CCN1C(=O)c2ccccc2Sc2ccc(NC(=O)c3ccc(C)c(F)c3)cc21 -1.79%
COc1cccc(NC(CNS(=O)(=O)c2ccc(C)cc2)c2ccccc2)c1 (stereo not drawn) 3.18%
O=C(Cn1nnc2sc3c(c2c1=O)CCCC3)Nc1ccc(F)c(Cl)c1 -19.4%
CN(Cc1ccccc1)c1ncnc2c1nc1n2CCCC1 -17.3%
COc1ccccc1N(CC(=O)NCCSCc1ccc(Cl)cc1)S(C)(=O)=O 7.83%
Cc1cc(-c2ccc(C)c(S(=O)(=O)NCc3ccc(Cl)cc3)c2)on1 -14.9%
CCCS(=O)(=O)NCCc1csc2nc(-c3ccc(OC)cc3)nn12 18.2%
CCc1c(C)nc2nncn2c1Nc1ccc(C)c(F)c1 5.71%
Cc1ccccc1CNC(=O)CCCn1nc(C)c2sc3ccccc3c2c1=O 1.17%
COc1cccc(C(=O)Nc2nnc(S(=O)(=O)N3CCOCC3)s2)c1 34.8%
CCOC(=O)c1c(C)[nH]c(C)c1S(=O)(=O)N1CCC(C(=O)Nc2ccccn2)CC1 3.28%
COc1ccc(C2CC(=O)Nc3c2c(=O)nc2c(C)cccn32)cc1 (stereo not drawn) 5.68%
CCC12CN3CC(CC)(CN(C1)C3c1ccc(OCc3ccccc3)cc1)C2=O (stereo not drawn) 4.94%
Cc1cc(C)c2c(=O)cc(C(=O)Nc3ccccc3Cl)oc2c1 -4.51%
CCc1ccc(-c2nc3c(c(SCc4ccc(F)cc4)n2)Cc2c(CO)cnc(C)c2O3)cc1 9.67%
CCS(=O)(=O)N1CC(=O)N(c2ccc(C)c(C)c2)C(C)(C(=O)NC2CCCCC2)C1 (stereo not drawn) 7.01%
CCC(C)NC(=O)C1CCC(CNS(=O)(=O)c2cccc3nsnc23)CC1 (stereo not drawn) 1.73%
O=c1oc2ccc(Br)cc2cc1-c1nc(-c2ccccc2)no1 -9.89%
CC1=C(C(=O)NCCc2ccc(Cl)cc2)C2(CCCCC2)OC1=O -2.5%
COCCNC(=O)CCCn1c(SCC(=O)Nc2cccc(C)c2)nc2c(sc3ccccc32)c1=O -9.88%
COc1ccc(N2CCN(C(c3ccccc3)c3nnc(-c4ccccc4Cl)o3)CC2)cc1 (stereo not drawn) -0.738%
Cc1cccc(NC(=O)CSc2nc3c(oc4ccccc43)c(=O)n2C(C)C)c1 -27%
CCOc1ccc(N2CC(c3nc4ccccc4n3CC(C)C)CC2=O)cc1 (stereo not drawn) 1.34%
COCC(=O)N1CCc2cc(OC)c(OC)cc2C1COc1ccc2c(C)cc(=O)oc2c1 (stereo not drawn) 8.66%
COc1cc(NC(=O)CCNS(=O)(=O)c2ccc3c(c2)CCN3C(=O)C2CC2)cc(OC)c1 54.8%
COc1cccc(CNC(=O)Cn2ccc3cc(S(=O)(=O)N4CCCC4)ccc32)c1 1.65%
CCOc1ccccc1N1CC(c2nc3ccccc3n2CCCOc2ccccc2OC)CC1=O (stereo not drawn) 0.951%
O=C(Nc1nc2nc(-c3ccccc3)cc(=O)n2[nH]1)c1ccc(F)cc1 3.29%
N#Cc1ccccc1Cn1nnc2c(=O)[nH]c(C3CCCN(S(=O)(=O)c4ccc(F)cc4)C3)nc21 (stereo not drawn) -9.38%
O=C(Nc1sc2c(c1C(=O)NCc1ccccc1)CCCC2)c1cc(=O)c2cc(Cl)ccc2o1 -1.14%
CCc1ccccc1N1CC(c2nc3ccccc3n2Cc2cccc(C)c2)CC1=O (stereo not drawn) 1.25%
O=C(Nc1cccnc1Cl)c1cc(-c2ccc(Cl)cc2)on1 -4.67%
CC1CCc2nn(CC(=O)Nc3cccc(C(F)(F)F)c3)c(=O)cc2C1 (stereo not drawn) 5.39%
O=C(NCc1ccccc1)C1CCC(CNS(=O)(=O)c2ccc(Br)s2)CC1 (stereo not drawn) 0.731%
COc1ccc(CN(C(=O)Nc2ccc(C)c(F)c2)C2CCN(C(C)=O)CC2)cc1 1.06%
CC(C)c1ccc(C(=O)Nc2cccc3cccnc23)cc1 3.18%
CNC(=O)c1cc2n(n1)CCCN(Cc1ccc(F)cc1)C2=O -12.6%
O=C1C(c2ccc(F)cc2)N(CCc2ccccc2)C(=O)CN1C1CCCCC1 (stereo not drawn) 4.58%
CC1CCN(S(=O)(=O)c2cc(C(=O)NCc3ccc(F)cc3)n(C)c2)CC1 -10.9%
COc1cccc(COC(=O)c2ccc(-c3nnn(Cc4ccccc4)n3)cc2)c1 3.18%
Cc1ccccc1C(=O)Nc1nnc(SCc2cc(=O)c3c(C)ccc(C)c3[nH]2)s1 17%
CCc1ccc(NC(=O)Cn2nnc(C(=O)NCc3ccco3)c2N)cc1 4.87%
Cc1ccc(NC(=O)CCS(=O)(=O)c2ccc3nc(C)sc3c2)cc1 6.58%
CSc1ccc(CCNC(=O)c2cc3n(n2)CCCN(Cc2ccc(C)cc2)C3=O)cc1 -1.7%
CCOc1ccc(CCNS(=O)(=O)c2c(C)nc3sc(C)cn3c2=O)cc1OCC -3.02%
COC(=O)c1ccc(Cn2nc(-c3ccc(C)c(C)c3)ccc2=O)cc1 -1.47%
CC(C)c1ccc(NS(=O)(=O)c2ccc3[nH]c(=O)ccc3c2)cc1 4.9%
O=C(Nc1noc2ccccc12)c1cccc(F)c1 5.42%
COCCc1nn2c(=O)cc(COC(=O)COc3ccccc3C)nc2s1 -8.75%
O=C(CCS(=O)(=O)c1cc2c3c(c1)CCN3C(=O)CC2)NCc1ccc(F)cc1 4.92%
COc1ccc(Cl)cc1Nc1ncnc2c1nc1n2CCCC1 0.409%
COC(=O)c1ccc(C2c3c(oc4cc(C)c(C)cc4c3=O)C(=O)N2c2ccccn2)cc1 (stereo not drawn) -3.36%
